This is one part of the list. The energies were worked out here from pooled read counts, against the library average; single values are noisy.
Target: T1, Pho4 (S. cerevisiae) (UniProt P07270)
T1 sequence: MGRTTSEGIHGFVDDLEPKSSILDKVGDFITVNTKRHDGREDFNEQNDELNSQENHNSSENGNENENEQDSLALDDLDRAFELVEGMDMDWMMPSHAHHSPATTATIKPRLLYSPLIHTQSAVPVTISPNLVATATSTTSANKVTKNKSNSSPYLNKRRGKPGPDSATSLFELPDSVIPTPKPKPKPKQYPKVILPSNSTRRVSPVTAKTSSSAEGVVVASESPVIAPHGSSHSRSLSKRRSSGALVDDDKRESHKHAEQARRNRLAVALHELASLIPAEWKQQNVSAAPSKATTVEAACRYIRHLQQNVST
Assay: relative binding free energy (BET-seq); higher = weaker binding
Details: reference: library average

| Sequence | relative binding free energy |
| --- | --- |
| GTGCTCACGTGTTGAT | 0.31 kcal/mol |
| TTCAGCACGTGTCGTG | -0.06 kcal/mol |
| AGGTTCACGTGGGGAC | 0.11 kcal/mol |
| TGTCTCACGTGAAGGC | 0.42 kcal/mol |
| TTGGGCACGTGGGACG | -0.2 kcal/mol |
| AACTGCACGTGATGTT | 0.23 kcal/mol |
| AGCAGCACGTGGAGGT | -0.14 kcal/mol |
| AGGGTCACGTGATTTG | 0.31 kcal/mol |
| TGAGTCACGTGCATTT | 0.07 kcal/mol |
| GTGCACACGTGGGCGG | -0.18 kcal/mol |
| AATTGCACGTGAGTGG | 0.29 kcal/mol |
| CGGTTCACGTGATCGG | 0.28 kcal/mol |
| CTTTGCACGTGTGTGC | 0.06 kcal/mol |
| AGGAACACGTGGTTGA | -0.08 kcal/mol |
| ACGTGCACGTGGAGAG | -0.13 kcal/mol |
| TTGGACACGTGGTCAA | 0.05 kcal/mol |
| TTCATCACGTGAAAGG | 0.32 kcal/mol |
| CGCGTCACGTGGGTTT | -0.01 kcal/mol |
| TCTGGCACGTGGTTTT | -0.09 kcal/mol |
| TTAGTCACGTGGGGGC | -0.04 kcal/mol |
| CTTAGCACGTGTTGGA | -0.1 kcal/mol |
| GTCAGCACGTGTGAGT | 0.06 kcal/mol |
| TAGGACACGTGGGGAG | 0 kcal/mol |

| Sequence | relative binding free energy |
| --- | --- |
| CGGGTCACGTGTAGGA | 0.19 kcal/mol |
| GACGGCACGTGTGTTT | 0.12 kcal/mol |
| GTTAACACGTGGCAGG | 0.04 kcal/mol |
| GGTGCCACGTGCGGAG | 0.01 kcal/mol |
| GTACACACGTGTTGTT | -0.03 kcal/mol |
| TGAAACACGTGAGTTG | 0.07 kcal/mol |
| CGTTGCACGTGATTTT | 0.22 kcal/mol |
| CTAAGCACGTGTAGGT | -0.2 kcal/mol |
| ATCCTCACGTGGTGTG | 0.08 kcal/mol |
| AATGGCACGTGGATGT | -0.12 kcal/mol |
| AATGTCACGTGGAAGG | 0.08 kcal/mol |
| GGGAACACGTGACGTT | 0.24 kcal/mol |
| TGTATCACGTGGAGCA | 0.04 kcal/mol |
| AGTTTCACGTGTTGTT | 0.29 kcal/mol |
| TGTAGCACGTGAGTAG | 0.17 kcal/mol |
| CGGTACACGTGTAGTG | 0.04 kcal/mol |
| GGATACACGTGGGGAG | -0.01 kcal/mol |
| TTGTGCACGTGTGAAT | 0.09 kcal/mol |
| TGTTGCACGTGGTCGG | -0.08 kcal/mol |
| CTGGTCACGTGAAGTG | 0.2 kcal/mol |
| TACGTCACGTGGTTTA | 0.02 kcal/mol |
| AGTGACACGTGGGGCT | -0.22 kcal/mol |
| CGTTTCACGTGAGGTC | 0.27 kcal/mol |

| Sequence | relative binding free energy |
| --- | --- |
| TTATTCACGTGTTTAA | 0.11 kcal/mol |
| GTTTTCACGTGAGTGC | 0.44 kcal/mol |
| GGGATCACGTGTGGGG | 0.27 kcal/mol |
| GTGTTCACGTGGACTG | 0.21 kcal/mol |
| TGGATCACGTGTACGT | 0.1 kcal/mol |
| GAGACCACGTGGGGTT | -0.15 kcal/mol |
| TTCGACACGTGGCGTT | 0.04 kcal/mol |
| TGGACCACGTGTGGCG | 0.02 kcal/mol |
| CTTGGCACGTGGTTGT | -0.15 kcal/mol |
| TGGTCCACGTGTGGTC | 0.16 kcal/mol |
| GGGGACACGTGGTGGG | 0.06 kcal/mol |
| CTCTGCACGTGGGGGC | -0.11 kcal/mol |
| TCAGGCACGTGTGGAG | 0.04 kcal/mol |
| GTTGGCACGTGAATAT | 0.12 kcal/mol |
| TGGCTCACGTGAGAGT | 0.33 kcal/mol |
| CTTATCACGTGGGCTG | -0.01 kcal/mol |
| CTGCGCACGTGGGGAA | -0.13 kcal/mol |
| AGGGTCACGTGGCTAT | 0.01 kcal/mol |
| TCAATCACGTGGGGTA | 0 kcal/mol |
| CGAGACACGTGTGGGT | 0.15 kcal/mol |
| CTTGGCACGTGATTGT | -0.13 kcal/mol |
| AGGTTCACGTGTACGA | 0.33 kcal/mol |
| GGCCTCACGTGTGGGT | 0.16 kcal/mol |

| Sequence | relative binding free energy |
| --- | --- |
| ATATTCACGTGATATG | 0.3 kcal/mol |
| GATTACACGTGGTGGC | 0.1 kcal/mol |
| ATGGACACGTGGATTT | -0.05 kcal/mol |
| CAGGTCACGTGTAGGC | 0.24 kcal/mol |
| AGTTACACGTGAATGT | 0.1 kcal/mol |
| GTGTTCACGTGAGACA | 0.44 kcal/mol |
| TTTTGCACGTGGTATC | 0 kcal/mol |
| GTGGGCACGTGTCGAG | -0.04 kcal/mol |
| GAGCTCACGTGTGTTT | 0.3 kcal/mol |
| TCTTTCACGTGTATTT | 0.12 kcal/mol |
| TTGTCCACGTGGCTGT | -0.03 kcal/mol |
| CGTGGCACGTGTTAGA | -0.02 kcal/mol |
| GTTGACACGTGGGTCT | -0.07 kcal/mol |
| TGGGCCACGTGCGGTG | -0.18 kcal/mol |
| AGGGGCACGTGGGTTA | -0.23 kcal/mol |
| GATTTCACGTGTTTTG | 0.39 kcal/mol |
| GGACGCACGTGGCGTA | -0.05 kcal/mol |
| GTTATCACGTGTCAAG | 0.31 kcal/mol |
| GGTATCACGTGAACTG | 0.41 kcal/mol |
| AGTCTCACGTGGGGTA | 0.15 kcal/mol |
| CTAGGCACGTGTTAGG | -0.11 kcal/mol |
| TTGGGCACGTGTTAAT | -0.06 kcal/mol |
| AGGGTCACGTGGGGAA | 0.08 kcal/mol |

| Sequence | relative binding free energy |
| --- | --- |
| ATGTGCACGTGGTAAG | -0.06 kcal/mol |
| GGGATCACGTGGGCTA | 0.02 kcal/mol |
| ATGATCACGTGGTGAG | 0.08 kcal/mol |
| ATTTTCACGTGGACAG | 0.23 kcal/mol |
| GTTTGCACGTGCTGCG | 0.04 kcal/mol |
| AGTGTCACGTGACTGT | 0.25 kcal/mol |
| GTGTGCACGTGATAAT | 0.22 kcal/mol |
| GTGTACACGTGTTAGG | 0.13 kcal/mol |
| AGGGTCACGTGTCGAT | 0.04 kcal/mol |
| TGGGTCACGTGGCGTC | 0.04 kcal/mol |
| CGAGTCACGTGGGTGC | -0.04 kcal/mol |
| AAGATCACGTGGTGAT | 0.16 kcal/mol |
| TTTATCACGTGCTGTG | 0.05 kcal/mol |
| TTGGTCACGTGTGGCC | 0.19 kcal/mol |
| ATGGGCACGTGGCCTT | -0.16 kcal/mol |
| TGTGACACGTGGACAT | -0.03 kcal/mol |
| ATGTGCACGTGTTCAT | -0.11 kcal/mol |
| AGTAGCACGTGCTGTG | -0.18 kcal/mol |
| GCTAGCACGTGTAGGG | -0.02 kcal/mol |
| TGATACACGTGTGTCT | 0.19 kcal/mol |
| TGTGGCACGTGTTGCG | -0.09 kcal/mol |
| TGGTTCACGTGTTAGG | 0.32 kcal/mol |
| GTATACACGTGTCGTT | -0.05 kcal/mol |

— the BET-seq Pho4 binding data (Le et al. 2018)
